The full ranking holds about 81,000 sequences; the median of “one-hybrid fitness for binding NBS DNA” is about -0.1, and the highest 2% start at about 0.36. This is one part of the list.
B1: Caulobacter ParB omega fusion; a variant is named by its letters at X, in order, B8GW30 (parent)
chain: MESVVVGEPGMSEGRRGLGRGLSALLGEVDAAPAQAPGEQLGGSREAPIEILQRNPDQPRRTFREEDLEDLSNSIREKGVLQPILVRPSPDTAGEYQIVAGERAWRAAQRAGLKTVPIMVRELDDLAVLEIGIIENVQRADLNVLEEALSYKVLMEKFERTQENIAQTIGKSXSHVANXMRLLXLPDEVQSYLVSGELTAXHARAIAAAADPVALAKQIIEGGLSVRETEALARKAPNLSAGKSKGGRPPRVKDTDTQALESDLSSVLGLDVSIDHRGSTGTLTITYATLEQLDDLCNRLTRGI

Variants of: B1
Assay: one-hybrid fitness for binding NBS DNA (the Noc-binding site; scaled: cognate 1, non-cognate 0); higher = stronger binding
Settings: with NBS DNA site
In short: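 Selection: bacterial one-hybrid in E. coli USO, HIS3 reporter with the site 19 bp from the promoter, 48 hours at 37°C on M9-minus-histidine plus 0.1 mM IPTG and 5 mM 3-AT. Libraries were Caulobacter ParB with four randomised specificity codons, sequenced on Illumina before and after selection. Fitness is the rescaled log change in variant-to-wild-type read ratio, anchored to the cognate and non-cognate sites.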

Variant	one-hybrid fitness for binding NBS DNA
CKIL	≤ 0.2
PAET	≤ 0.2
TAIS	≤ 0.2
YKNC	≤ 0.2
RLGT	0.389
YYHL	≤ 0.2
QYDL	≤ 0.2
GRTV	≤ 0.2
NSAD	≤ 0.2
VEMS	≤ 0.2
ACRG	≤ 0.2
GVQN	≤ 0.2
RTGT	0.575
ASEM	≤ 0.2
AHFR	≤ 0.2
NLNN	≤ 0.2
YNQC	≤ 0.2
PPSY	≤ 0.2
HWAT	≤ 0.2
HVEA	≤ 0.2
GGMA	≤ 0.2
PVYC	≤ 0.2
HPHC	≤ 0.2
LPGE	≤ 0.2
RAAQ	≤ 0.2
QHMY	≤ 0.2

Variant	one-hybrid fitness for binding NBS DNA
EKPV	≤ 0.2
PLPQ	≤ 0.2
QFVA	≤ 0.2
RRGN	0.324
HDDQ	≤ 0.2
TDGR	≤ 0.2
PRTM	≤ 0.2
FTRD	≤ 0.2
AYVR	≤ 0.2
RVSC	≤ 0.2
RCVQ	0.215
SCEQ	≤ 0.2
KTYS	≤ 0.2
AGTR	≤ 0.2
RRFP	≤ 0.2
QNPV	≤ 0.2
RSCA	≤ 0.2
YKGC	≤ 0.2
RVLW	≤ 0.2
RWTC	≤ 0.2
GFYV	≤ 0.2
QITW	≤ 0.2
RLYM	≤ 0.2
HEMM	≤ 0.2
ERTS	≤ 0.2
NQGS	≤ 0.2

Variant	one-hybrid fitness for binding NBS DNA
DHCA	≤ 0.2
QGTT	≤ 0.2
KHTG	≤ 0.2
NGYG	≤ 0.2
QLSW	≤ 0.2
HQNS	≤ 0.2
VDWS	≤ 0.2
TFWL	≤ 0.2
ALLS	≤ 0.2
KDSR	≤ 0.2
LTDA	≤ 0.2
GIHL	≤ 0.2
QWLV	≤ 0.2
TMKM	≤ 0.2
LKCF	≤ 0.2
NLIH	≤ 0.2
PIHH	≤ 0.2
RGVW	≤ 0.2
KRFR	0.469
SLCF	≤ 0.2
YHVV	≤ 0.2
IALT	≤ 0.2
LNIN	≤ 0.2
APMD	≤ 0.2
SVAL	≤ 0.2
SGSP	≤ 0.2

Variant	one-hybrid fitness for binding NBS DNA
QFET	≤ 0.2
YTIT	≤ 0.2
RNWG	≤ 0.2
TKGT	≤ 0.2
VDRY	≤ 0.2
QDLQ	≤ 0.2
MRAY	≤ 0.2
RCAE	≤ 0.2
PAVY	≤ 0.2
DSRK	≤ 0.2
VNDP	≤ 0.2
SCGL	≤ 0.2
QREK	≤ 0.2
WYSI	≤ 0.2
WSYY	≤ 0.2
WTHC	≤ 0.2
HDRC	≤ 0.2
NLNF	≤ 0.2
CGTA	≤ 0.2
FDTS	≤ 0.2
RYQF	≤ 0.2
RRNL	≤ 0.2
PGRN	≤ 0.2
CELN	≤ 0.2
AMMM	≤ 0.2
PDQY	≤ 0.2

Variant	one-hybrid fitness for binding NBS DNA
KAKR	0.33
RKFK	≤ 0.2
PAPC	≤ 0.2
RASE	≤ 0.2
RVNK	≤ 0.2
HTDR	≤ 0.2
GGHR	≤ 0.2
QANI	≤ 0.2
RMWT	0.348
NLKC	≤ 0.2
IQQN	≤ 0.2
QKPA	≤ 0.2
RWVW	≤ 0.2
TCMT	≤ 0.2
PCNT	≤ 0.2
VEFG	≤ 0.2
PSSN	≤ 0.2
WYFT	≤ 0.2
WDVL	≤ 0.2
HRKY	≤ 0.2
SSPD	≤ 0.2
KAHQ	≤ 0.2
PFPY	≤ 0.2
YYKS	≤ 0.2
WSQV	≤ 0.2
DIEN	≤ 0.2

Variant	one-hybrid fitness for binding NBS DNA
IKTS	≤ 0.2
TLQY	≤ 0.2
SYPG	≤ 0.2
SHLT	≤ 0.2
ECWS	≤ 0.2
FADC	≤ 0.2
YVIY	≤ 0.2
LADA	≤ 0.2
ICSV	≤ 0.2
SDEV	≤ 0.2
MYTS	≤ 0.2
ERPN	≤ 0.2
RKRV	0.237
PSEY	≤ 0.2
YACA	≤ 0.2
SPFK	≤ 0.2
SCSQ	≤ 0.2
DPMG	≤ 0.2
RTWQ	≤ 0.2
AALG	≤ 0.2
RHIC	≤ 0.2
FPPR	≤ 0.2
QIGF	≤ 0.2

— a collection of fitness landscapes (doi:10.1016/j.celrep.2020.107928)
